In patent publication US9844656B2, “Localization of agents at a target site with a composition and an energy source” (The Regents of the University of California, priority 2010, dated 2017):

Test system: Met-1 tumors
Settings: ~0.9 mg rapamycin/kg ip three times per week

## CO[C@H]1C[C@@H]2CC[C@@H](C)[C@@](O)(O2)C(=O)C(=O)N2CCCC[C@H]2C(=O)O[C@H]([C@H](C)C[C@@H]2CC[C@@H](O)[C@H](OC)C2)CC(=O)[C@H](C)/C=C(\C)[C@@H](O)[C@@H](OC)C(=O)[C@H](C)C[C@H](C)/C=C/C=C/C=C/1C [rapamycin, Rapamycin]
  survival post-treatment: 24 days
